Data from PubChem BioAssay AID485281 (National Center for Advancing Translational Sciences (NCATS), 2010).
About 260 (0.074%) of roughly 350,000 compounds were called active. The shares of active, inactive and inconclusive entries below differ from those in the screen. Calls follow the shape of the dose curve; as a rule, active = well fitted inhibition curve with a large enough effect; inconclusive = small, poorly fitted or top-dose-only effect; inactive = no such curve, though single readings can be large or run the other way. Potencies of inconclusive entries are doubtful fits and often do not repeat.

What follows are compounds tested against Ferritin light chain (Equus caballus) (UniProt P02791) (assay: qHTS Assay for Identification of Novel General Anesthetics). Details: apoferritin/1-aminoanthracene competitive binding, fluorescence; series mostly up to 77.5 µM.
Summary of the method: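 Steps: apoferritin (10 uM) was premixed with half-saturated 1-AMA in PBS, compounds were pin-transferred, plates stood 10 min at room temperature, fluorescence was read at 380/535 nm, and curves were fitted with a Hill equation.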
Also: nearly all actives have a fitted effect of over 20% in size.
Potency is read from the fitted curve at half-maximal effect; tags tell the direction and shape of the fitted curve.

Chain of UniProt P02791 (P02791 whole entry, looked up): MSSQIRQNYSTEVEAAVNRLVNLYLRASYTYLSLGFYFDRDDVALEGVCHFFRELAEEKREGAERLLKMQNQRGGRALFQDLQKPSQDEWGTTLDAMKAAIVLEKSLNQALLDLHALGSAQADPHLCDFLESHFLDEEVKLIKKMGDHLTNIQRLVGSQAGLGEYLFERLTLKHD

Potency, inconclusive:
CC1(C)CC(=O)C(C(C2=C(O)CC(C)(C)CC2=O)c2ccc(Br)s2)C(=O)C1 (stereo unspecified) 50.1 µM [inhibitor, single point]
COc1ccc(C2C(C#N)=C(N)N(c3ccccc3)C3=C2C(=O)CCC3)cc1Cn1cc([N+](=O)[O-])cn1 (stereo unspecified) 8.91 µM [inhibitor, partial curve]
O=C(c1ccc(Cl)cc1)c1oc2ccccc2c1CS(=O)c1ccccc1 (stereo unspecified) 10 µM [inhibitor, full curve, poor fit]
CCOc1ccc(OCc2ccc(C(=O)Nc3cccnc3)o2)cc1 20 µM [inhibitor, partial curve]
c1csc(CN2CCN(Cc3cccs3)C2c2cccs2)c1 28.2 µM [inhibitor, single point]
Cc1ccc(C(c2nnnn2Cc2cccs2)N2CCN(Cc3ccc4c(c3)OCO4)CC2)cc1 (stereo unspecified) 8.91 µM [inhibitor, partial curve]
C=C1C2(C(=O)Nc3ccc(SC(F)F)cc3)CCC(C2)C1(C)C (stereo unspecified) 15.8 µM [inhibitor, partial curve]
COc1ccc(-c2nc(SCCOc3ccccc3Cl)n3[nH]c(=O)cc3n2)cc1 11.2 µM [inhibitor, partial curve]
O=C(c1cccc(F)c1F)N1CCCc2ccccc21 11.2 µM [inhibitor, partial curve, poor fit]
CCOC(=O)CSc1nc2c(c(=O)n(Cc3ccccc3Cl)c(=O)n2C)n1C 35.5 µM [inhibitor, partial curve]
Cc1cc2cc(CN(CCN3CCOCC3)C(=O)Nc3ccccc3F)c(=O)[nH]c2cc1C 50.1 µM [inhibitor, partial curve]
CCCS(=O)(=O)c1c(S(=O)(=O)CCC)c2cnccn2c1C(=O)c1ccc(Cl)cc1 4.47 µM [inhibitor, full curve, poor fit]
CCn1c(COc2ccc(OC)cc2)nc2ccccc21 25.1 µM [inhibitor, partial curve]
COC(=O)c1cccc(-c2ccc(/C=N/N3C(=O)C4C5C=CC(C6CC56)C4C3=O)o2)c1 (stereo unspecified) 14.1 µM [inhibitor, partial curve]
Cc1ncc([N+](=O)[O-])n1CCOC(=O)Nc1ccc(Cl)c(Cl)c1 22.4 µM [inhibitor, partial curve]
Cn1c(-c2ccc3c(c2)OCO3)cnc1NCc1ccccc1Cl 28.2 µM [inhibitor, single point]
CCN(c1ccccc1)S(=O)(=O)c1ccc(C(C(=O)OC)C(=O)OC)c([N+](=O)[O-])c1 17.8 µM [inhibitor, partial curve]
COc1ccccc1-n1cnc2cc(NCc3cccs3)ccc21 15.8 µM [inhibitor, partial curve]
COc1ccccc1Nc1nn2c(=O)c3ccc(C(=O)N4CCCC(C)C4)cc3nc2s1 (stereo unspecified) 31.6 µM [inhibitor, partial curve]
CCCCCCCCNC(=S)NCCN1CCCCC1 28.2 µM [inhibitor, partial curve]
CC1=CC(C)C2(CO)COC(c3ccccc3O)C1C2C (stereo unspecified) 44.7 µM [inhibitor, partial curve]
O=C(c1cccc(Cl)c1)N1CCCc2ccccc21 44.7 µM [inhibitor, partial curve]
Cc1cc(C)n2c(SCC(=O)NC3CCCC(C)C3C)nnc2n1 (stereo unspecified) 25.1 µM [inhibitor, partial curve]
ClCC1CN(Cc2ccccc2Cl)CCO1 (stereo unspecified) 28.2 µM [inhibitor, single point]
COc1cc(/C=C(\C#N)c2nc3ccccc3[nH]2)ccc1OCc1cccc(C(F)(F)F)c1 8.91 µM [inhibitor, partial curve]
CC(NC(=O)c1cc(S(=O)(=O)N(C)C)ccc1N1CCCC1)C1CC2CCC1C2 (stereo unspecified) 20 µM [inhibitor, partial curve]
Cc1cccc(C)c1-n1cccc1/C=C1/C(=N)N2C(=NC1=O)SN=C2S(C)(=O)=O 25.1 µM [inhibitor, partial curve]
COc1ccc(-c2nn3c(-c4ccccc4C)nnc3c3ccccc23)cc1 3.55 µM [inhibitor, full curve]
CC(C)c1nc2sc3c(SCC(=O)NCc4ccco4)ncnc3c2c2c1CCC2 11.2 µM [inhibitor, partial curve]
CC(/C=N/NC(=O)Cn1cnc2ccccc21)=C\c1ccccc1 25.1 µM [inhibitor, partial curve]
N#CC(C#N)=Cc1cccn1-c1ccc(S(N)(=O)=O)cc1 28.2 µM [inhibitor, single point]
O=C(Cc1c(F)cccc1Cl)Nc1ncc([N+](=O)[O-])s1 31.6 µM [inhibitor, partial curve]
COC(=O)/C(=C\C=C\c1ccccc1)NC(=O)c1ccccc1 35.5 µM [inhibitor, single point]
COc1ccc(/C=N/NC(=O)c2nc(-c3ccccc3)cc(-c3ccccc3)n2)cc1O 44.7 µM [inhibitor, single point]
O=C(OCc1ccccc1)c1ccccc1 22.4 µM [inhibitor, partial curve]
CCCCCCCC(=O)NNC(=O)c1ccc([N+](=O)[O-])cc1 12.6 µM [inhibitor, partial curve]
CCOc1ccc(C(=O)c2cc([N+](=O)[O-])ccc2Cl)cc1 39.8 µM [inhibitor, partial curve, poor fit]
CC1(C)CC2CC(C)(CN2C(=O)COC(=O)c2n[nH]c(=O)c3ccccc23)C1 (stereo unspecified) 35.5 µM [inhibitor, partial curve]
Cc1cc(NC(=O)c2noc3c2CCCC3)nn1Cc1ccc(Cl)cc1 11.2 µM [inhibitor, partial curve]
Cc1ccc(NC(=O)COC(=O)CCC(=O)c2cccs2)cc1S(=O)(=O)N1CCOCC1 22.4 µM [inhibitor, partial curve]
CCOCCCNS(=O)(=O)c1ccc(NC(=O)c2ccc(OC)c([N+](=O)[O-])c2)cc1 10 µM [inhibitor, partial curve]
COc1ccc(C2=C(N)c3ccccc3C2=O)cc1 15.8 µM [inhibitor, partial curve]
O=C(O)Cc1ccc(C(=O)c2ccccc2F)s1 44.7 µM [inhibitor, partial curve]

Potency, inactive:
COc1ccc(C2C(C(=O)c3ccco3)=C(O)C(=O)N2CCOCCO)cc1OC (stereo unspecified)
OCCCc1nc2n(n1)C(c1cccs1)C=C(c1ccccc1)N2 (stereo unspecified)
CC1(C)Cc2c(cnn2-c2cccc(F)c2)C(NC(=O)CCc2cnccn2)C1 (stereo unspecified)
COc1ccc(CCNC(=O)CS(=O)Cc2nc(-c3ccccc3F)oc2C)cc1OC (stereo unspecified)
CCCc1nc(N2CCOCC2)c(C#N)c2c1CCCC2
COc1cc2c(cc1OC)-c1cc(NC3CCCCC3)nc(=O)n1CC2
CCN1C(C(=O)c2ccccc2)=C(OC(=O)c2ccccc2OC)c2ccccc2S1(=O)=O
CCOc1ccc(-c2nc(CSCC(=O)NCc3ccc(Cl)cc3)c(C)o2)cc1
CCCCCCCCCCCCCCCC(=O)NCCc1ccc(O)c(O)c1
CCOC(=O)c1sc(NC(=O)c2ccncc2)c(C#N)c1C
CN1CCc2c(sc3c2C(=O)NC(c2cn(Cc4ccccc4)c4ccccc24)N3)C1 (stereo unspecified)
CNC(=S)NC1CC2CCCC(C1)N2Cc1ccco1 (stereo unspecified)
O=C(O)c1ccc(N/N=C2/CCCc3ccccc32)cc1
Cc1c(C(=O)Oc2cccc3cccnc23)cccc1[N+](=O)[O-]
O=[N+]([O-])c1cccc(-c2nc(-c3ccncc3)no2)c1
CCOC(=O)N1CCC(NCCNC(=O)c2cccs2)CC1
COc1ccc(N2C(=O)[C@@H]3[C@H](C2=O)[C@H]2C=CC=NN2[C@@H]3C(=O)Nc2ccc(Cl)cc2)cc1
CCOC(=O)Cn1c(=NC(=O)c2ccc([N+](=O)[O-])s2)sc2ccccc21
CCC(=O)N(C)/C=C1\Sc2ccccc2C1=O
CC(C)N(Cc1ccccc1)C(=S)NC(=O)C1(C)CC1(Cl)Cl (stereo unspecified)
CCC(C)(C)n1nnnc1C(c1cccs1)N1CCc2ccccc21 (stereo unspecified)
Cc1ccc(-n2nc3c(=O)n(CC(=O)NCCCc4ccccc4)nc(C)c3c2C)cc1
CCSc1ccccc1C(=O)Nc1ccc(-c2nc3ccccc3s2)c(O)c1
O=C(OCC(=O)N1CCN(C(=O)c2ccco2)CC1)c1cc(-c2ccc(Cl)c(Cl)c2Cl)nc2ccccc12
OC[C@H]1NC[C@@H](O)[C@@H](O)[C@@H]1O
O=C(NCc1nc(-c2ccc(C(F)(F)F)cc2)no1)Nc1ccc(OC(F)(F)F)cc1
Cc1csc(NC(=O)CSc2nnc(-c3ccncc3)n2C)n1

Potency, active:
CC(=O)c1ccc(OCc2cc(C(=O)N3CCCCCCC3)no2)cc1 5.01 µM
